IC50, C2C12 pMARE-luc assay data for 22 molecules are collected here from US20160038588A1, “Myostatin Antagonism in Human Subjects” (AMGEN INC., priority 2013, published 2016).

Where a chain is given by its changes, count along the chain named.

B1: mTN8Con6-5 peptibody (Fc fusion)
chain: [here human IgG1 Fc without letters]GGGGGAQESRWYPCYEGHLWCFDLTETLE
B2: mTN8Con6-3 peptibody (Fc fusion)
chain: [here human IgG1 Fc without letters]GGGGGAQWTGWYQCYGGHLWCYDLRRKLE
B3: mL20-4 peptibody (Fc fusion)
chain: [here human IgG1 Fc without letters]GGGGGAQMQHDMSMLYGLVELLESLGHQILE
B4: Myostatin-Linear-20 peptibody (Fc fusion)
chain: MYREMSMLEGLLDVLERLQHYGGGGG[here human IgG1 Fc without letters]
B5: mTN8-19-21(-LE) peptibody (Fc fusion)
chain: [here human IgG1 Fc without letters]GGGGGAQSEYQGLCTRWPWMCPPQGWK
B6: mTN8-19-33(-LE) peptibody (Fc fusion)
chain: [here human IgG1 Fc without letters]GGGGGAQPESQGHCTRWPWMCPPQGWG
B7: mTN8-19-4 peptibody (Fc fusion)
chain: [here human IgG1 Fc without letters]GGGGGAQMITQGQCTRWPWMCPPQPSGLE
B8: mTN8-19-12 peptibody (Fc fusion)
chain: [here human IgG1 Fc without letters]GGGGGAQSYWQGQCTRWPWMCPPQWRGLE
B9: mTN8-19-11 peptibody (Fc fusion)
chain: [here human IgG1 Fc without letters]GGGGGAQIYPHDQCTRWPWMCPPQPYPLE
B10: mTN8-19-13 peptibody (Fc fusion)
chain: [here human IgG1 Fc without letters]GGGGGAQMWQQGHCTRWPWMCPPQGWGLE
B11: mTN8-19-6 peptibody (Fc fusion)
chain: [here human IgG1 Fc without letters]GGGGGAQGVNQGQCTRWRWMCPPNGWELE
B12: mTN8-19-16 peptibody (Fc fusion)
chain: [here human IgG1 Fc without letters]GGGGGAQYQTQGLCTRWPWMCPPQSQRLE
B13: mTN8-19-29 peptibody (Fc fusion)
chain: [here human IgG1 Fc without letters]GGGGGAQTLVQGHCTRWPWMCPPQRWVLE
B14: mTN8-19-28 peptibody (Fc fusion)
chain: [here human IgG1 Fc without letters]GGGGGAQSGPQGHCTRWPWMCAPQGWFLE
B15: mTN8-19-23 peptibody (Fc fusion)
chain: [here human IgG1 Fc without letters]GGGGGAQPGAHDHCTRWPWMCPPQSRYLE
B16: Myostatin-TN12-34 peptibody (Fc fusion)
chain: MAHWCEQGPWRYGNICMAYGGGGG[here human IgG1 Fc without letters]GGGGGAHWCEQGPWRYGNICMAY
B17: mL2-7 peptibody (Fc fusion)
chain: MGAQRMEMLESLFELLKEIVPMSKAGLEGGGGG[here human IgG1 Fc without letters]
B18: mL2-9 peptibody (Fc fusion)
chain: B17 chain with R5Q, M8L, E10D, M22K, K24Q, A25P, G26A
B19: mL15-9 peptibody (Fc fusion)
chain: [here human IgG1 Fc without letters]GGGGGAQQIEMLESLLDLLRDMVPMSNAFLE
B20: mL20-2 peptibody (Fc fusion)
chain: [here human IgG1 Fc without letters]GGGGGAQTQRDMSMLDGLLEVLDQLRQQRLE
B21: mL20-3 peptibody (Fc fusion)
chain: [here human IgG1 Fc without letters]GGGGGAQTSRDMSLLWELLEELDRLGHQRLE
B22: mL15-7 peptibody (Fc fusion)
chain: [here human IgG1 Fc without letters]GGGGGAQQVDSLQQVLLWLEHKLALGPQVLE

This experiment has as its target T1, recombinant mature myostatin (human, produced in E. coli) (human) (UniProt O14793).
T1 sequence (looked up): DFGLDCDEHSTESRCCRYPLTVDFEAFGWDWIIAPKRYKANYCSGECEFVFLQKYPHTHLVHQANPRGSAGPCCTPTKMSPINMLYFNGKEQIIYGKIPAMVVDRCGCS
Put plainly: cell-based or functional assay.
Turning to B1, the IC50, C2C12 pMARE-luc assay stood at 2.38 µM.

Take B2: the IC50, C2C12 pMARE-luc assay turned out to be 86.8 nM.

B3: the IC50, C2C12 pMARE-luc assay amounted to 160 nM.

With B4, the IC50, C2C12 pMARE-luc assay is 11 nM.

On to B5, for which the IC50, C2C12 pMARE-luc assay stood at 2.49 nM.

For B6, the IC50, C2C12 pMARE-luc assay stood at 1.81 nM.

Turning to B7, the IC50, C2C12 pMARE-luc assay was 16.7 nM.

Take B8: the IC50, C2C12 pMARE-luc assay worked out at 980 nM.

For B9, the IC50, C2C12 pMARE-luc assay was 28.7 nM.

In the case of B10, the IC50, C2C12 pMARE-luc assay is 20 nM.

For the molecule B11, the IC50, C2C12 pMARE-luc assay was determined as 17.3 nM.

As to B12, the IC50, C2C12 pMARE-luc assay was determined as 4.65 nM.

B13: the IC50, C2C12 pMARE-luc assay amounted to 6.36 nM.

Consider B14, for which the IC50, C2C12 pMARE-luc assay turned out to be 4.39 nM.

On to B15, for which the IC50, C2C12 pMARE-luc assay was determined as 6.58 nM.

Take B16: the IC50, C2C12 pMARE-luc assay stood at 30 nM.

For B17, the IC50, C2C12 pMARE-luc assay was 90.2 nM.

B18: the IC50, C2C12 pMARE-luc assay is 106 nM.

Consider B19, for which the IC50, C2C12 pMARE-luc assay stood at 354 nM.

For the molecule B20, the IC50, C2C12 pMARE-luc assay stood at 123 nM.

On to B21, for which the IC50, C2C12 pMARE-luc assay stood at 158 nM.

Regarding B22, the IC50, C2C12 pMARE-luc assay came out at 32.8 nM.
